Measurements published in the supplement of paper PMC3334620.
The full ranking holds about 33,000 sequences; the median of “E-score (-0.5 to 0.5)” is about -0.043, and the highest 2% start at about 0.37. Some of the results follow.

Biological target: T1, Upc2 (UniProt Q12151)
T1 sequence: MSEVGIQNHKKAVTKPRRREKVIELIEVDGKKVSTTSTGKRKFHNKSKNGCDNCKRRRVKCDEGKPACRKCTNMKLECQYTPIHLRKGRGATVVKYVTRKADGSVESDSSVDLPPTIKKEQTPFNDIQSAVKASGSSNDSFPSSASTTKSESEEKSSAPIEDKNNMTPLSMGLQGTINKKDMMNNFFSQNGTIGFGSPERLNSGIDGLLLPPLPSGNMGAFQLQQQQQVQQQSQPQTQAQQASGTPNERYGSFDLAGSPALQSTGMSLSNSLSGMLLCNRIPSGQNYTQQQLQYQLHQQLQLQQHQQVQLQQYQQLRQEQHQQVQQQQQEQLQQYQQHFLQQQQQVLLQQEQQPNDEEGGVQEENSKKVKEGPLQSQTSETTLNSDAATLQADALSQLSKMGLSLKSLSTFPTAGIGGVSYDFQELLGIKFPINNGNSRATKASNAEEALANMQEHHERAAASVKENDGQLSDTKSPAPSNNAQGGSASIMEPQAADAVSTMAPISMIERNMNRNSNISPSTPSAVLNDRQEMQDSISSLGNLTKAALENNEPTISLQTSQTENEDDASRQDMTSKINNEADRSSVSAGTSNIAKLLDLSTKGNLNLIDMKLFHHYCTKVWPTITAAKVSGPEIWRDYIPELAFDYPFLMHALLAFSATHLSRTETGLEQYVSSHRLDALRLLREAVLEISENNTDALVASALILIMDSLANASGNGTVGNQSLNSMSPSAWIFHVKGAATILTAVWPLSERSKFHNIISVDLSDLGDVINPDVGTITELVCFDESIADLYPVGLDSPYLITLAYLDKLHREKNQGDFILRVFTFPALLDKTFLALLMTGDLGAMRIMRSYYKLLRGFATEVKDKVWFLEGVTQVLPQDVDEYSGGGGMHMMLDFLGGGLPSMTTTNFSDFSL
Assay: PBM E-score (8-mer binding enrichment) (E-score (-0.5 to 0.5)); higher = stronger / more preferred TF binding; most listed sequences are background and not binding sites
Details: protein concentration: 200 nM; construct: GST-full length
Procedure: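 Universal 'all 10-mer' protein binding microarrays (Agilent AMADID 015681) probed with GST-tagged S. cerevisiae TFs (full-length or DBD) made by in vitro transcription/translation (PURExpress), about 100-200 nM. Bound TF was detected with fluorescent anti-GST. Each ungapped 8-mer (which stands for itself and its reverse complement) is scored by the PBM enrichment score (E-score), a modified Wilcoxon-Mann-Whitney statistic from -0.5 to +0.5, computed with the Universal PBM Analysis Suite. Scale: above 0.35 generally sequence-specific binding.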

Sequence | PBM E-score
CATTATGG | -0.175
ATCTTGTC | -0.154
CTCTCTGA | -0.242
CTAACCGA | 0.37
CATTGTTA | 0.00463
AGTGTGGC | -0.131
ATGTGGCC | -0.247
CATTCCAG | -0.289
GGAACCCA | -0.0878
GGCCTGGA | -0.419
CACAAGTC | -0.17
CCGTCCCA | -0.0922
ATGATAAT | -0.145
ATGCTCGA | -0.134
GATGGGTA | 0.108
AAAGTGGC | -0.0761
GCTCATAA | -0.0368
ATCAGGTC | 0.0789
AATAATCG | 0.0287
AGTGTCCC | -0.0702
ACGGATAC | 0.27
CTTTGACA | -0.164
CACCAGCC | -0.119
CTTCGCAA | 0.055
GGGCCATA | -0.0163

Sequence | PBM E-score
TATAGCGA | 0.204
AAACATGA | -0.0547
TCTCTTAA | 0.197
ACCGGTAG | -0.109
ACGTTTGA | 0.244
CTTGGCAC | -0.209
GCCAGAAC | -0.081
CGGGTAGC | -0.0833
ATATAGCC | -0.146
CTTGGCCA | -0.261
ATCTTCCA | -0.214
CGGTTGTC | 0.107
GCGACTAA | 0.163
ATATCTAC | 0.0208
GCCTGTAA | -0.249
AGCTCGAC | -0.017
CCCAGGCC | -0.226
ATTACCTA | -0.0593
AGTTATAG | -0.202
GCCCAGCA | -0.0617
AGTGAGAG | -0.279
CAGAGACG | -0.0255
AGATAACC | -0.147
ACTACCAA | -0.00452
ACCGCGGA | 0.049

Sequence | PBM E-score
AGCTTTAC | 0.192
AGGAAGAA | -0.179
GAAAGAAC | -0.0116
ACGGGGAC | 0.0613
CGTTGACA | 0.176
AGACTAGG | -0.0821
ATCTTAGG | -0.24
AACCTCGT | 0.372
CCCACAGA | -0.13
GTGGTGGA | 0.0837
ATCAGATA | -0.0501
CGGATAGA | 0.163
CGATTAGA | 0.172
GGTACCTA | -0.117
GAAAGATA | 0.00564
GGTGGCCA | -0.268
AATCCGAC | 0.069
CGTACTAA | 0.297
AGTGGGCG | -0.0881
CGACTGAA | 0.184
CTGTACTC | 0.00852
ACCCCCCA | -0.26
CGCTCCGA | 0.0523
ACAATGGA | -0.0209
ACGCTTCC | -0.0297

Sequence | PBM E-score
GACTAAAC | 0.116
CAAGCGTG | -0.183
TCTATACA | 0.0829
AATGGGTA | 0.226
GCCCCTCC | -0.0822
CCTGCATA | -0.232
CCCAGTAC | -0.0334
AGGACTTA | -0.161
AACGGTAT | 0.223
CGCGGATC | -0.113
CGCACAGC | -0.0362
AAGGGGGC | 0.0404
AGTGAAGC | -0.0908
GGTAAACA | 0.111
AAATCTGG | 0.114
AGCTGAAC | -0.00145
AGTTCCCC | -0.191
AAGTAAGG | -0.0201
AAAGCATC | 0.0386
TACTCGAA | 0.187
ATGGGGAA | 0.0333
GTGATCAC | -0.221
AATCGACC | 0.0614
GCGACACA | 0.00942
CACCAGTC | -0.0748

Sequence | PBM E-score
ATCGTAGG | 0.165
ATATAATG | -0.118
ACTGTGGG | -0.199
AGATTGCA | -0.0673
CGTAGATA | 0.201
CCGGGCAA | -0.105
CCCGCGTC | -0.0193
GAGTAGCC | -0.0894
TCCTTTAA | -0.00287
CGAGTGAC | 0.22
GGGAGACA | -0.188
AATGTGCC | -0.154
GCGTTACC | -0.0432
CCGCGAGC | 0.00566
GTGTCGCA | 0.0927
TAAGGTAA | 0.0415
GCTGCAGC | -0.125
GCGGATTA | 0.0243
CGGGTTAC | 0.209
ACTTTGCT | -0.0435
CTTCAGGC | -0.201
GAGGTGTA | -0.128
CAAGGGTG | -0.226
GGAACGAA | 0.464
ACCCCTTA | -0.155

Sequence | PBM E-score
GTGTAAGA | 0.0639
CTAGAGAG | -0.236
CTACCGTC | -0.208
AACGGATC | 0.143
CGATTAGC | 0.257
ATCATTCA | 0.0286
CGCTAGAG | 0.00564
CTGCGCGA | -0.0988
ATATGTGG | -0.146
AGACAACT | -0.179
GCTTCGAA | 0.0704
CGTCATAC | 0.249
GAGAGAGA | -0.0966
GCCTTTAA | -0.0667
AATTCGGC | -0.242
GCCGACGA | -0.0599
ACGTAGAC | 0.0773
CGATTCGC | 0.131
ACAGTAGC | -0.0133
GATTGCAA | 0.00183
AGATGCGC | 0.0333
ACTATAAC | -0.121
CGAACTAC | 0.0988
CTGAGAGC | -0.15
AGAGGTCC | -0.131

Sequence | PBM E-score
AAATCTTA | 0.0972
CTTTCGTC | -0.043
CTGACATA | -0.151
ACTATTCG | 0.251
CGGCACTA | -0.142
CCGCATAA | 0.121
CCAAGAAG | -0.227
AGGACACT | -0.364
ACCGAGCC | 0.2
TACTAGGA | -0.232
CCAATCGG | -0.174
CTCATCCA | -0.255
TTGGGAAA | 0.0564
ATCTTACA | 0.0167
CCCGGTAG | -0.0851
AGAAAAGC | 0.0148
GACGAGAA | 0.0864
GGCGCACA | -0.261
CGTAAAGC | 0.403
TAATATCA | -0.137
GGGACGAC | -0.244
AGCGACGA | 0.185
